In PubChem BioAssay (NCI):
For part of its entries the source gives two or more results. This is not the full list of results. An entry can have further records. Cut-off read from the data, not from the text of the source: active = growth inhibition above about 70%; inactive = the rest. Values that stand side by side are repeated measurements across runs, samples, wells, individuals or studies. More than one record can exist for a structure, and the calls need not agree.

Key:
[1] = NCI Yeast Anticancer Drug Screen. Data for the rad50 strain (AID 155);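 note: 0% = growth of vehicle-only cultures of the same strain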; conditions: S. cerevisiae rad50 strain growth inhibition; at 50.0 µM; stronger effect = higher value
[2] = NCI Yeast Anticancer Drug Screen. Data for the mec2-1 strain (AID 157); conditions: S. cerevisiae mec2-1 strain, at 50.0 µM, stronger effect = higher value
[3] = NCI Yeast Anticancer Drug Screen. Data for the sgs1 mgt1 strain (AID 161);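 note: 0% = growth of cultures given vehicle only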; conditions: S. cerevisiae sgs1 mgt1 strain, at 50.0 µM, stronger effect = higher value
[4] = NCI Yeast Anticancer Drug Screen. Data for the cln2 rad14 strain (AID 165);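 note: 0% = growth equal to vehicle treated cultures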; conditions: S. cerevisiae cln2 rad14 strain, at 50.0 µM, stronger effect = higher value
[5] = NCI Yeast Anticancer Drug Screen. Data for the bub3 strain (AID 167); conditions: S. cerevisiae bub3 mutant strain, at 50.0 µM, stronger effect = higher value
[6] = NCI Yeast Anticancer Drug Screen. Data for the mlh1 rad18 strain (AID 175); conditions: S. cerevisiae mlh1 rad18 strain growth inhibition; at 50.0 µM; stronger effect = higher value

SMILES	growth inhibition [1]	growth inhibition [2]	growth inhibition [3]	growth inhibition [4]	growth inhibition [5]	growth inhibition [6]
COc1cccc2c1C(=O)c1c(O)c3c(c(O)c1C2=O)CC(O)(C(=O)CO)CC3OC1CC(N)C(O)C(C)O1 (configuration not stated)	inactive: 19.4, 13.1, 20.9, -25.3% and active: 74% [separate samples]	inactive: 14.9, 7.2, -2.25, -40.4, 27.4% [separate samples]	inactive: -0.4, -14.6, -16.8, -31.2, 32.6% [separate samples]	inactive: 15.4, -5.4, -12.3, -40.5, 25% [separate samples]	inactive: -27.1, -15.6, -10.6, -77, 48.9% [separate samples]	inactive: -8.45, -46.5, -29.1, -64.2% and active: 75.2% [separate samples]
COc1nc(N)c(N=CC(OC(C)=O)C(OC(C)=O)C(COC(C)=O)OC(C)=O)c(=O)n1C (configuration not stated)	inactive: 10.2, 29.9, 1.15, 36.2% [separate samples]	inactive: 63.2, 11.4, -2.05, 44% [separate samples]	inactive: 65, -6.2, -8.6, -2.05% [separate samples]	active: 77.4%, 95.2%, 90% and inactive: 0.35% [separate samples]	active: 91.8% and inactive: -7%, 9.1%, 44.3% [separate samples]	active: 76.5% and inactive: 17.9%, 0.9%, 67.8% [separate samples]
